# Test results as given in PMC4336329 (PLoS ONE, 2015).
# The campaign covered roughly 310,000 compounds. About 14,000 (4.5%) showed an effect of 50% or more. The effect is printed as a negative number. The list shows a part of the results.
# Target: human ether-à-go-go-related gene (hERG) potassium channel (human, UniProt Q12809)
# Test: primary screen, population patch clamp on CHO cells stably expressing hERG
# 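Further: peak tail current of the secondary pulse compared with the same well before compound.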
# Sequence of human ether-à-go-go-related gene (hERG) potassium channel (Q12809 whole entry, looked up): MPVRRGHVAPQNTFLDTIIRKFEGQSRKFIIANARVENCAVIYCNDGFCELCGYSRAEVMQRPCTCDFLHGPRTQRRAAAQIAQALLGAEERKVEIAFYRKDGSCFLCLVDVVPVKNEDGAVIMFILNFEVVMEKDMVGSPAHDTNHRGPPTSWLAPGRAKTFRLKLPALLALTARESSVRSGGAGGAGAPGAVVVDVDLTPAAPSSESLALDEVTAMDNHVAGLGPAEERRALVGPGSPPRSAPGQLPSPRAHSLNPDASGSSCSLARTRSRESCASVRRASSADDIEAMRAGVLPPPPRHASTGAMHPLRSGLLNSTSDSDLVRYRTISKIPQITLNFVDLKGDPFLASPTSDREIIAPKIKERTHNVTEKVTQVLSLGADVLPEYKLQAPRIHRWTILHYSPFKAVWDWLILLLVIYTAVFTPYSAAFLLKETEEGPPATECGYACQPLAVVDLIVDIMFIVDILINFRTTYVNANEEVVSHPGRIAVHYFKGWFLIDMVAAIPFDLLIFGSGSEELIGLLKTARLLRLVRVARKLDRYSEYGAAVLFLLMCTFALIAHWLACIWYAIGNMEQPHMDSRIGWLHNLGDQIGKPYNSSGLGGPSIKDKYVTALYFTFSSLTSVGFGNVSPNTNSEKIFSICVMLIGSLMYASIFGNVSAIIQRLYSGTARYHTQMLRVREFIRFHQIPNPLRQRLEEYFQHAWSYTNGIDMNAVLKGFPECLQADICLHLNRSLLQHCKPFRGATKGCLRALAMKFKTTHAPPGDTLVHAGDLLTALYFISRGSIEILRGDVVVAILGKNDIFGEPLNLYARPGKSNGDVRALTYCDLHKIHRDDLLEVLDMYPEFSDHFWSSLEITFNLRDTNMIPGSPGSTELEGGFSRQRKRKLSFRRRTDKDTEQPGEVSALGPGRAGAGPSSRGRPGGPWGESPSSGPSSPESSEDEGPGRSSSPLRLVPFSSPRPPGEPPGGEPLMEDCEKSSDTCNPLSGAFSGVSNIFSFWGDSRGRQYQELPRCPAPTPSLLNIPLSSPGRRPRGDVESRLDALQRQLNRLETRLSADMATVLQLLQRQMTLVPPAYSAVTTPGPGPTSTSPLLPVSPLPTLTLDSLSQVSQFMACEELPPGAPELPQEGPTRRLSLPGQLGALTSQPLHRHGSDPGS
row,Structure (SMILES),"hERG current change (%, negative = inhibition) at 10uM"
1,COc1ccccc1NC(=O)COc1ccc(Br)cc1CNCCCN1CCOCC1.Cl,-58.6%
2,CCOC(=O)C1CCN(C(=O)Nc2ccc(OC(F)(F)F)cc2)CC1,-38.2%
3,COc1ccc(N(CC(=O)NN=C2CCN(C)CC2)S(=O)(=O)c2ccccc2)c(OC)c1,10.9%
4,CC(CCc1ccccc1)N(C)CC(O)c1cccc([N+](=O)[O-])c1.Cl (centres unmarked),-68.6%
5,Cc1ccc2sc(N(CCCN(C)C)C(=O)CN3C(=O)c4ccccc4C3=O)nc2c1C.Cl,-45.2%
6,Nc1nc(O)c(CC(=O)O)s1,22.9%
7,COc1ccccc1NC(=O)c1ccc(NC(=O)COC(=O)C2CCCCC2)cc1,29.3%
8,O=C(Nc1ccc2c(c1)nc1n2CCSC1)c1ccco1,4.09%
9,CCOc1ccc(NC(=O)C2CCN(S(=O)(=O)c3ccc4c(c3)N(C(C)=O)CCO4)CC2)cc1,-4.09%
10,O=C(Cc1ccc(Cl)cc1)Nc1cccnc1,-2.21%
11,CCn1cc(C(=O)NCCC(=O)NCCO)c(=O)c2cc3c(cc21)OCO3,20.9%
12,COc1ccccc1NC(=O)CSc1nc2ccccc2cc1Cc1ccccc1,13.7%
13,Cc1ccc2cc(COC(=O)c3cccc([N+](=O)[O-])c3)c(=O)[nH]c2c1,3.7%
14,COC(=O)c1[nH]c2cccc(OC)c2c1NC(=O)CCN1CCN(c2ccccc2OC)CC1,-26.3%
15,Clc1ccc(SCCCCN2CCOCC2)cc1.O=C(O)C(=O)O,-22.5%
16,CN(C)S(=O)(=O)c1ccc(N2CCOCC2)c(C(=O)NCc2ccc3c(c2)OCO3)c1,-14.7%
17,CCOc1ccc(N(CC(=O)NC2CCCC2)C(=O)CCC(=O)Nc2nc(C)cs2)cc1,-28.8%
18,CCOC(=O)N1CCN(C(=O)CSc2nnc(C3COc4ccccc4O3)o2)CC1 (centres unmarked),-11.5%
19,CN(Cc1cccc(-n2cccn2)c1)C(=O)CCc1nnc(C2CCCCC2)o1,-6.68%
20,CCCCc1cc(=O)oc2c(CN(CC)CC)c(O)c(Cl)cc12,-41.8%
21,O=C(Oc1ccc(C(=S)N2CCOCC2)cc1)c1ccc(Br)cc1,27.7%
22,CC(C)(C)OC(=O)NNC(=S)NCc1ccc(Cl)cc1,3.52%
23,CC(C)c1ccc(N2CC(C(=O)Nc3nccs3)CC2=O)cc1 (centres unmarked),1.98%

row,Structure (SMILES),"hERG current change (%, negative = inhibition) at 10uM"
1,CCCC[n+]1cc(/N=C(\[O-])OC)on1,9.45%
2,COc1ccc(C(C(=O)NCC2CCCO2)N(C(=O)Cn2nnc3ccccc32)c2ccc(NC(C)=O)cc2)c(OC)c1 (centres unmarked),9.04%
3,O=C(COC(=O)c1ccccn1)Nc1cccc(Cl)c1Cl,14.6%
4,CC(=O)N1CCN(S(=O)(=O)c2cccc(C(=O)NC3CCC(C)CC3)c2)CC1 (centres unmarked),12.7%
5,Cc1ccc(S(=O)(=O)ON2C(=O)c3cccc4cccc(c34)C2=O)cc1,17.9%
6,N#CC(c1ccc(F)cc1)c1ccc(C(=O)c2ccccc2)cc1 (centres unmarked),6.9%
7,CC(C)CCn1c(NCCN(C)C)nc2c1c(=O)[nH]c(=O)n2C,-23.2%
8,Cn1c(=O)c(=O)n(C)c2cc(N3CCCC3)c(NS(=O)(=O)c3ccc(F)cc3)cc21,-16.2%
9,C/C(=N/O)c1ccccn1,0.00038%
10,O=C(COC(=O)Cc1ccccc1)Nc1ccc(F)cc1,16.9%
11,CCC(C)(C)NC(=O)CN(C(=O)CCC(=O)Nc1nccs1)c1ccccc1C,9.49%
12,O=C(Cc1ccc([N+](=O)[O-])cc1)Nc1ccc(O)cc1C(=O)O,2.78%
13,CC(=O)C(C)n1cnc2scc(-c3ccc(C)cc3)c2c1=O (centres unmarked),3.91%
14,CCN(Cc1ccncc1)C(=O)c1ccc(C)o1,-0.494%
15,Cc1cc(Nc2ccc(N(C)C)cc2)n2ncnc2n1,11.7%
16,O=C(NCC1CCCO1)c1ccc(S(=O)(=O)N2CCC(c3nc4ccc(Cl)cc4[nH]3)CC2)cc1 (centres unmarked),-18%
17,O=C(c1oc2ccccc2c1CSCc1ccccc1)N1CCN(c2ncccn2)CC1,1.59%
18,O=C(Nc1ccccc1C(=O)O)c1cncc(Br)c1,15.9%
19,COCCNC(=O)Cn1cc(C(=S)N2CCCCC2)c2ccccc21,18.7%
20,Cc1nn(-c2ccccc2)c(C)c1C(=O)N1CCN(S(=O)(=O)c2ccccc2)CC1,-25%
21,O=C(c1ccc2c(c1)CCN2S(=O)(=O)c1ccccc1)N1CCN(c2ccccc2F)CC1,6.59%
22,CCOC(=O)C1=C(C)NC(=O)NC1c1ccc([N+](=O)[O-])o1 (centres unmarked),2.29%
23,Cc1cc(C)cc(NC(=O)CN2CCc3ccccc3C2)c1,-10.2%

row,Structure (SMILES),"hERG current change (%, negative = inhibition) at 10uM"
1,CC1CCc2nn(CC(=O)NCCCN3CCCC3=O)cc2C1 (centres unmarked),10.2%
2,CCOC(=O)Cc1csc(NC(=O)c2ccc(C)c(S(=O)(=O)N3CCOCC3)c2)n1,-32%
3,CC(C)CN(C(=O)/C=C/c1nc2ccccc2s1)C1CCS(=O)(=O)C1 (centres unmarked),-6.49%
4,COc1cc(-c2nc3ccc(N4CCN(C)CC4)cc3[nH]2)cc(OC)c1OC,15.5%
5,CC1CCN(C(=O)COC(=O)c2n[nH]c(=O)c3ccccc23)CC1,-5.73%
6,O=C1N(S(=O)(=O)c2ccccc2F)C(=O)C2(CCCC2)N1S(=O)(=O)c1ccccc1F,6.04%
7,O=C(CN1C(=O)S/C(=C/c2ccncc2)C1=O)Nc1ccccc1,6.44%
8,O=C(O)C(Cc1cn[nH]n1)=NO,10.2%
9,Nn1c(SCC(=O)NC2CCCCC2)nnc1-c1ccccc1,-0.171%
10,COC(=O)c1cc(Br)c(=O)n(CCN2CCCCC2)c1,11.9%
11,Cc1nn(Cc2ccc(C(=O)N3c4ccc(F)cc4CCC3C)o2)c(C)c1Br (centres unmarked),-30.5%
12,CC1CCN(S(=O)(=O)c2ccc(C(=O)NC3CCS(=O)(=O)C3)cc2)CC1 (centres unmarked),-5.94%
13,COc1ccccc1N1CCN(C2CCCN(C(=O)c3cscn3)C2)CC1 (centres unmarked),11.3%
14,O=C(CN1CCN(C/C=C/c2ccccc2)CC1)NCc1ccccc1,-73.3%
15,CC(C)CC(C(=O)O)N(Cc1ccccc1)Cc1ccccc1 (centres unmarked),0.82%
16,Cc1ccc(S(=O)(=O)N2CCCC2C(=O)OCc2nc3ccccc3s2)cc1 (centres unmarked),-5.18%
17,Cc1ccc(C2CC(c3ccc(F)cc3)Nc3nc(N)nn32)cc1 (centres unmarked),5.79%
18,O=c1[nH]c2cc3c(cc2cc1CN(CC1CCCO1)S(=O)(=O)c1ccc(Cl)cc1)OCCO3 (centres unmarked),-9.98%
19,CCc1nc(N)c(C#N)c(-c2cccnc2)c1C,1.48%
20,Cc1cccc(NC(=O)Nc2ccc(Oc3c(F)c(F)c(F)c(F)c3F)cc2)c1,-9.16%
21,CCOC(=O)C1(CCOC)CCN(Cc2cnc(-c3cccc(C)c3)nc2)CC1,-5.81%
22,CC(=O)Nc1ccc(C(=O)/C=C/c2ccco2)cc1,5.69%
23,COc1cccc(C(=O)NCC(=O)OCC(=O)Nc2ncc(Cl)cc2Cl)c1,16.7%

row,Structure (SMILES),"hERG current change (%, negative = inhibition) at 10uM"
1,O=C(OCc1nc2ccc(Cl)cc2n1CCO)c1ccccc1C(=O)c1ccccc1,-9.65%
2,Cc1ccc(N(C)C(=O)n2cnc3ccccc32)cc1,-1.52%
3,O=C(c1cnc2ccccn2c1=O)N1CCc2ccccc21,-18.9%
4,COCCCNC(=O)C1CCN(C(=O)Nc2ccc(Cl)cc2)CC1,14%
5,COc1ccc(CCNC(=O)CSc2nc3ncccc3[nH]2)c(OC)c1,-11.2%
6,Cc1nc2ccccn2c1C(=O)NC1CCCCC1,1.83%
7,CC12CN3CC(C)(CN(C1)C3c1cc(Br)ccc1O)C2=O (centres unmarked),-2.08%
8,COc1ccc(-c2c(NC(=O)c3ccco3)oc3c(C)cccc3c2=O)cc1OC,20%
9,Cc1cccc(C)c1NC(=S)Nc1ccc(Cl)c(Cl)c1,-3.7%
10,O=S(=O)(NCc1ccccn1)c1ccc(Br)s1,3.16%
11,CCCCc1ccc(S(=O)(=O)NNC(=S)NCc2ccco2)cc1,3.87%
12,CC(C)C(OC(=O)CN1C(=O)COc2ccccc21)C(=O)NC1CCCCC1 (centres unmarked),-9.89%
13,CC(C)CNC(=O)c1cccc2c1-c1ccccc1C2=O,12.7%
14,N#Cc1ccc[n+](CC(=O)c2ccc(Cl)cc2)c1.[Br-],8.1%
15,[N-]=[N+]=N[C@@H]1C[C@H](n2ccc(=O)[nH]c2=O)O[C@@H]1CO,-33.4%
16,Cc1noc(C)c1CSCC(=O)Nc1nc(-c2ccc(F)c(F)c2)cs1,-21%
17,COC(=O)c1cc(S(=O)(=O)NCC2CCN(Cc3cccc(F)c3)CC2)c[nH]1,-16.7%
18,Cc1ccc(-c2ccnc3c(Br)c(C)nn23)cc1,14.3%
19,COc1ccc(S(=O)(=O)N(C)c2nc3ccccc3n3c(CC(C)C)nnc23)cc1,-27.6%
20,CC1=C(c2ccccc2)CCC1=O,-28.7%
